According to publication PMC5601738, “Facile total synthesis of lysicamine and the anticancer activities of the Ru^II, Rh^III, Mn^II and Zn^II complexes of lysicamine” (Oncotarget, 2017):
Several values for one entry are separate records, joined by “and”; a condition that tells them apart may be missing. Equal values may be shown once.

Legend:
[1] = system: HL-7702 normal liver cell; test: MTT assay, HL-7702 normal liver cell; format: cell-based; conditions: 48 h; for IC50: MTT, mean ± SD from five independent experiments
T-24 = test: MTT assay, T-24 cells; format: cell-based, human; conditions: 48 h; for IC50: MTT, mean ± SD from five independent experiments
HepG2 = test: MTT assay, HepG2 cells; conditions: for inhibitive ratio Hep-G2 / IC50: 48 h; for IC50: read-out: IC50 HepG2, MTT, mean ± SD from five independent experiments
BEL-7404 = test: MTT assay, BEL-7404 cells; format: cell-based, human; conditions: 48 h; for IC50: MTT, mean ± SD from five independent experiments
NCI-H460 = test: MTT assay, NCI-H460 cells; format: cell-based, human; conditions: 48 h; for IC50: MTT, mean ± SD from five independent experiments
caspase-9 in HepG2 cells = test: Activated caspase-9 by flow cytometry; conditions: HepG2, at IC50, 24 h; control […]
HepG2 cells [2] = test: Uptake of metal complexes in HepG2 cells (ICP-MS); format: cell-based, human; conditions: HepG2, 2 at 7.0 μM, 3 at […], 8 h
[3] = Chemical stability test in TBS (UV-Vis, HPLC); conditions: 0 h and 24 h
caspase-8 in HepG2 cells = test: Activated caspase-8 by flow cytometry; conditions: HepG2, at IC50, 24 h; control 2.1 %
[4] = system: cell cycle regulators genes in HepG2 cells; test: RT-qPCR array, human cell cycle PCR array (PAHS-020Z); format: cell-based; conditions: HepG2, 7.0 μM, 24 h
KM mice = test: Maximum tolerated dose / in vivo safety profile
[5] = system: apoptosis genes in HepG2 cells; test: RT-qPCR array, human apoptosis PCR array (PAHS-012Z); format: cell-based; conditions: HepG2, 7.0 μM, 24 h
caspase-3 in HepG2 cells = test: Activated caspase-3 by flow cytometry; conditions: HepG2, at IC50, 24 h; control 0.0 %
ct-DNA = test: CD absorption spectrometry assay with ct-DNA; format: binding; conditions: ct-DNA 1×10^−4 M, [DNA]/[compound] 10:0.5 to 10:2.0
pBR322 plasmid DNA = test: Agarose gel electrophoresis assay with pBR322 plasmid DNA; format: biochemical; conditions: pBR322 0.5 μg/μL
Procedure: The DNA cleavage activity of 2, 3 and LY were tested by agarose gel electrophoresis assay using pBR322 plasmid DNA (0.5 μg/μL) in TBE buffer (pH=8.5). […] In contrast, under the same experimental conditions, when the concentration of 2 increased from 10 μM to 50 μM, the mobility of supercoiled DNA (form I) was reduced, but the relaxed form (form II) was not observed. When the concentration of 2 increased further to 70 μM, the form II DNA appeared. Almost all supercoiled DNA (form I) changed to relaxed DNA (form II) when the concentration of 2 reached 90 and 100 μM.
RT-qPCR was performed. The threshold cycle (Ct) values approval no. SCXK 2014-0002 and SYXK 2014-0003), […]
were housed at a sterile environment with conditions of […]
than 3 days before used. Complexes and LYwere all […]
is limited in 1% in final working solutions. KM mice. The large concentration of 2 in 10% (v/v) […]
ct-DNA CD spectrum as control.
The HepG2 xenograft mice were induced by
37 °C in the dark for 4 h.
The percent weight loss or gain was calculated […]
imaging system under a UV-Vis transilluminator.. Percent tumour growth inhibition after initiation of treatment with 2 and cisplatin were calculated by TGI= […]
initial for control group).
Animals were supplied by Guangxi Medical
University Laboratory Animal Centre (Guangxi, China, […]

HepG2 cells [6] = test: Hoechst33258 assay; conditions: HepG2, 24 h; 2 at 3.5, 7.0, […]; 3 at 7.0, 14.0, 28.0 μM
HepG2 cells [7] = test: ROS, intracellular Ca2+ and mitochondrial membrane potential (DCFH-DA, Fluo-3 AM, JC-1); conditions: HepG2, 24 h; 2 at 3.5, 7.0, […]; 3 at 7.0, 14.0, 28.0 μM
[8] = system: cell cycle regulatory proteins in HepG2 cells; test: Western blot of cell cycle regulatory proteins; conditions: HepG2, 24 h
HepG2 cells [9] = test: Cell cycle analysis by flow cytometry; format: cell-based, human; conditions: for cell population in S phase: 24 h, control 31.23%

With [Ru(LY)Cl2(DMSO)2]·3H2O [Complex 1] the “inhibitive ratio HL-7702” value ([1]; 20 μmol/L, normal liver cell) was 41.23±2.38%, the IC50 ([1]; normal liver cell) was 69.2 ± 1.81 µM and the “inhibitive ratio T-24” value (T-24; 20 μmol/L) was 50.41±3.18%. For the same molecule, the IC50 (T-24) was 20.7 ± 1.83 µM, the “inhibitive ratio Hep-G2” value (HepG2; 20 μmol/L) was 18.83±0.56% and 18.83% and the IC50 (HepG2) was 57.3 ± 3.32 µM. For the same molecule, the “inhibitive ratio BEL-7404” value (BEL-7404; 20 μmol/L) was 31.32±1.32%, the IC50 (BEL-7404) was 49.5 ± 0.53 µM and the “inhibitive ratio NCI-H460” value (NCI-H460; 20 μmol/L) was 48.03±3.51%. For the same molecule, the IC50 (NCI-H460) was 15.8 ± 2.31 µM.

In the case of [Zn(LY)2(ClO4)2] [Complex 4], the “inhibitive ratio HL-7702” value ([1]; 20 μmol/L, normal liver cell) is reported as 38.03±1.67%, the IC50 ([1]; normal liver cell) is reported as 34.6 ± 2.21 µM and the “inhibitive ratio T-24” value (T-24; 20 μmol/L) is reported as 53.81±2.39%. For the same molecule, the IC50 (T-24) was 16.2 ± 0.93 µM, the “inhibitive ratio Hep-G2” value (HepG2; 20 μmol/L) was 20.39±0.96% and 20.39% and the IC50 (HepG2) was 35.5 ± 3.99 µM. The “inhibitive ratio BEL-7404” value (BEL-7404; 20 μmol/L) was 37.41±1.53%, the IC50 (BEL-7404) was 29.7 ± 0.96 µM and the “inhibitive ratio NCI-H460” value (NCI-H460; 20 μmol/L) was 37.84±1.53%. It also gave an IC50 (NCI-H460) of 8.17 ± 1.69 µM.

In the case of O.O.O.[Cl][Ru]([Cl])[Cl] [RuCl3·3H2O, reference compound], the “inhibitive ratio HL-7702” value ([1]; metal salts 1× 10-4 mol/L) is reported as 29.21±0.99%, the “inhibitive ratio T-24” value (T-24; metal salts 1× 10-4 mol/L) is reported as 30.23±0.78% and the “inhibitive ratio Hep-G2” value (HepG2; metal salts 1× 10-4 mol/L) is reported as 25.01±0.99%. The “inhibitive ratio BEL-7404” value (BEL-7404; metal salts 1× 10-4 mol/L) was 32.81±1.52% and the “inhibitive ratio NCI-H460” value (NCI-H460; metal salts 1× 10-4 mol/L) was 27.71±0.63%.

With O.O.O.O.O.O.[O-][Cl+3]([O-])([O-])[O-].[O-][Cl+3]([O-])([O-])[O-].[Zn+2] [Zn(ClO4)2·6H2O, reference compound] the “inhibitive ratio HL-7702” value ([1]; metal salts 1× 10-4 mol/L) was 22.34±1.47%, the “inhibitive ratio T-24” value (T-24; metal salts 1× 10-4 mol/L) was 20.16±1.09% and the “inhibitive ratio Hep-G2” value (HepG2; metal salts 1× 10-4 mol/L) was 20.18±0.79%. The “inhibitive ratio BEL-7404” value (BEL-7404; metal salts 1× 10-4 mol/L) was 29.55±1.09% and the “inhibitive ratio NCI-H460” value (NCI-H460; metal salts 1× 10-4 mol/L) was 24.08±0.59%.

In the case of [Rh(LY-OH)Cl3CH3OH] [Complex 2], the “proportion of activated caspase-9 cells” value (caspase-9 in HepG2 cells) is reported as 8.1%, the “inhibitive ratio HL-7702” value ([1]; 20 μmol/L, normal liver cell) is reported as 15.11±0.91% and 15.1% and the IC50 ([1]; normal liver cell) is reported as 35.1 ± 3.34 µM. The “inhibitive ratio T-24” value (T-24; 20 μmol/L) was 49.62±1.61%, the IC50 (T-24) was 14.3 ± 1.05 µM and the “inhibitive ratio Hep-G2” value (HepG2; 20 μmol/L) was 74.94±0.95%. The “fold increase of cytotoxicity (IC50) comparing with the free LY ligand” value (HepG2; HepG2 cells) was 1.6–3.2 fold, the IC50 (HepG2) was 7.56 ± 2.91 µM and the “distribution of the metal (Rh or Mn) in mitochondrial vs nuclear fraction” value (HepG2 cells [2]) was “higher in the mitochondrial fraction than in the nuclear fraction”. The “stability, UV-Vis spectra and HPLC chromatograms” value [3] was “No obvious changes”, the “proportion of activated caspase-8 cells” value (caspase-8 in HepG2 cells) was 10.3% and the “number of the 89 cell cycle regulators genes differentially expressed in mRNA levels by […] or more” value [4] was 58 genes. For the same molecule, the animal death (KM mice; 1/3 MTD every two days for 14 days) was “no animal death”, the death of mice (KM mice; single i.p. 22.8 mg/kg, 14 days observation) was “no death of mice” and the body weight loss (KM mice; single i.p. 22.8 mg/kg, next day) was 15%. For the same molecule, the “maximum tolerable dose (MTD)” value (KM mice; single intraperitoneal injection, 14 days observation) was 22.8 mg/kg, the “BCL2A1 mRNA expression, up” value [5] was 63.84 fold and the “CASP14, GADD45A, HRK, PYCARD, and TNFRSF9 mRNA expression, up” value [5] was 20.12–33.25 fold. For the same molecule, the “DAPK1 mRNA expression, down” value [5] was 10.41 fold, the “number of the 89 apoptosis-related genes differentially expressed in mRNA levels by […] or more” value [5] was 61 genes and the “proportion of activated caspase-3 cells” value (caspase-3 in HepG2 cells) was 21.1%. For the same molecule, the “change of CD spectrum of ct-DNA / binding” value (ct-DNA) was “significant hypochromism in both the negative and the positive bands”, the “concentration at which form II DNA appeared” value (pBR322 plasmid DNA; TBE buffer pH=8.5) was 70 µM and the “DNA cleavage activity on supercoiled pBR322 DNA” value (pBR322 plasmid DNA; TBE buffer pH=8.5, 10 to 100 μM) was “could cleave supercoiled DNA”. For the same molecule, the “Hoechst33258 fluorescence / apoptotic cell morphology” value (HepG2 cells [6]) was “stronger fluorescence in a dose-dependent manner”, the “ROS, intracellular Ca2+ and ΔΨm” value (HepG2 cells [7]) was “greatly increased the ROS and Ca^2+ levels and promoted the loss of ΔΨm” and the “inhibitive ratio BEL-7404” value (BEL-7404; 20 μmol/L) was 37.14±2.55%. The IC50 (BEL-7404) was 18.37 ± 0.14 µM, the “proliferating cell nuclear antigen (PCNA) level” value [8] was “decreased” and the “inhibitive ratio NCI-H460” value (NCI-H460; 20 μmol/L) was 63.82±3.26% and 63.82%. The IC50 (NCI-H460) was 10 ± 2.39 µM, the “cell population in S phase” value (HepG2 cells [9]; HepG2, 3.5 μM) was 55.23% and the “cell population in S phase” value (HepG2 cells [9]; HepG2, 7.0 μM) was 79.34%. The “effect on cell cycle progression” value (HepG2 cells [9]; HepG2, 24 h) was “significant cell cycle arrest at the S phase”.
